Assay [1] concerns the target T1, Flag-tagged Yaf2^ΔC-terminus (aa 1-101) (mouse) (UniProt Q99LW6).
T1 sequence: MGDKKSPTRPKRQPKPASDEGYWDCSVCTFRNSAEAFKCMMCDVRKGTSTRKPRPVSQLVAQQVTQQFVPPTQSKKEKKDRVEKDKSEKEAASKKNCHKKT
Briefly: co-IP; Flag co-IP from HEK293T cells transfected with Flag-tagged full-length or deletion constructs; IP buffer 20 mM Tris-HCl pH 8.0, 150 mM NaCl, 10% glycerol, 0.5% Triton X-100, 1 mM EDTA, 4 °C, 4 hrs; Western blot. For orientation: A western blot detects proteins with antibodies after separation by electrophoresis.

Assay [2] has as its target T2, Flag-tagged full-length Yaf2 (mouse) (UniProt Q99LW6).
T2 sequence: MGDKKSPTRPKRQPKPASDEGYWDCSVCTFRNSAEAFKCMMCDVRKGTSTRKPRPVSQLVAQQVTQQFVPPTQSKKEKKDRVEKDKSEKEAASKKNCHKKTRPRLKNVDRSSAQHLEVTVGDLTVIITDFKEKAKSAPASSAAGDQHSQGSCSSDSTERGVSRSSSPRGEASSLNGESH
Described as above.

Assay [3] deals with T3, Flag-tagged Yaf2^(Δzinc finger) (aa 44-179) (mouse) (UniProt Q99LW6).
T3 sequence: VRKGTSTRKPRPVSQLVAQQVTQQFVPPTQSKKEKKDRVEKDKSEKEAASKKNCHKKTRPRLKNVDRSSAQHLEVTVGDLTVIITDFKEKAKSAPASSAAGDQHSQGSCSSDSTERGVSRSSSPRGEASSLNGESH
The assay is described as above.

For another assay, the target named is T4, Full-length RYBP (mouse) (UniProt Q8CCI5).
T4 sequence: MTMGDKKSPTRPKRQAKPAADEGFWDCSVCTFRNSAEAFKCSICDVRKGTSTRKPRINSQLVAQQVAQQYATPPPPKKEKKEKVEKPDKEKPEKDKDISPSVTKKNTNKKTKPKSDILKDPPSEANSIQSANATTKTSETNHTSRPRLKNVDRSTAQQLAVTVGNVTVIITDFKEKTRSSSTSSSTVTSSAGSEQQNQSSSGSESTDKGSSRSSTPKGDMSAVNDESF
The assay is described as above.

Assay [4] concerns the target T5, RYBP^(Δzinc finger) (aa 45-228) (mouse) (UniProt Q8CCI5).
T5 sequence: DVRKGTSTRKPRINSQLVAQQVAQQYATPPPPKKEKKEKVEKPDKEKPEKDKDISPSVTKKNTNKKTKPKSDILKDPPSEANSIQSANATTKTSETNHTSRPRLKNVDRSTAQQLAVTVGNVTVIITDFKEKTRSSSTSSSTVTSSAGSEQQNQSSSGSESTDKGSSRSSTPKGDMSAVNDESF
The description is as above.

In assay [5] the target is T6, RYBP^ΔC-terminus (aa 1-145) (mouse) (UniProt Q8CCI5).
T6 sequence: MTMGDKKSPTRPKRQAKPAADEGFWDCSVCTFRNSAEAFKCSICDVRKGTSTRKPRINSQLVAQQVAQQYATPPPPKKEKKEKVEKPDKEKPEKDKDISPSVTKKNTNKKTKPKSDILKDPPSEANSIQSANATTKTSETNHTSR
The description is as above.

The target of assay [6] is T7, endogenous YAF2 (HEK293T cells) (human (endogenous in HEK293T)) (UniProt Q8IY57).
T7 sequence: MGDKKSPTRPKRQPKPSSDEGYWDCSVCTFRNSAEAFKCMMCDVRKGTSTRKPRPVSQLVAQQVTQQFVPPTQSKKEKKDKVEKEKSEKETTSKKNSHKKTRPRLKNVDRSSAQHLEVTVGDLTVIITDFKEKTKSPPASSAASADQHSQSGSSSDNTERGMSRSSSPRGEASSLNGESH
Briefly: co-IP; endogenous co-IP from HEK293T cells with an anti-YAF2 or an anti-RYBP antibody; Western blot.

For assay [7], the target named is T8, endogenous RYBP (HEK293T cells) (human (endogenous in HEK293T)) (UniProt Q8N488).
T8 sequence: T4 sequence with P87Q, D97E
Described as above.

The target in assay [8] is FLAG-RING1B (in mESCs) (mouse) (UniProt Q9CQJ4). Briefly: co-IP; Flag co-IP from mESCs transfected with Ring1b-Flag, with or without doxycycline induction of Yaf2-HA; Western blot.
For assay [9], the target named is Flag-tagged Ring1b-N-terminus (aa 1-50) (mouse) (UniProt Q9CQJ4). Briefly: co-IP; Flag co-IP from HEK293T cells transfected with Flag-tagged full-length or deletion constructs; IP buffer 20 mM Tris-HCl pH 8.0, 150 mM NaCl, 10% glycerol, 0.5% Triton X-100, 1 mM EDTA, 4 °C, 4 hrs; Western blot.
For assay [10], the target named is T9, Flag-tagged Ring1b-C-terminus (aa 95-336) (mouse) (UniProt Q9CQJ4).
T9 sequence: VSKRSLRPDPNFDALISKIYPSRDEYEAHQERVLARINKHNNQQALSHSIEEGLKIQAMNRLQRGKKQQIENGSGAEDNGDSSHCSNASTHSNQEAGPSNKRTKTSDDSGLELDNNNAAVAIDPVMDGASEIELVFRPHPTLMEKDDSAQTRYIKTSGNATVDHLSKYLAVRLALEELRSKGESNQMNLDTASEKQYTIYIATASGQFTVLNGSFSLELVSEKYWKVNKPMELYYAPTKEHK
Described as above.

The target of assay [11] is Flag-tagged full-length RING1B (mouse) (UniProt Q9CQJ4). Described as above.
The target of assay [12] is Flag-tagged Ring1b-ring finger region (aa 49-95) (mouse) (UniProt Q9CQJ4). The assay is described as above.
In the next assay the target is T10, GST-RING1B (mouse, UniProt Q9CQJ4 1-336).
T10 construct: RING1B (Ring1b), the coding region amplified from mouse cDNA, in pGEX-4T; also called pGEX-4T-mRing1b; source: E. coli BL21 (DE3), purified (glutathione agarose); not shown: GST, N-terminal, kept
T10 sequence (looked up): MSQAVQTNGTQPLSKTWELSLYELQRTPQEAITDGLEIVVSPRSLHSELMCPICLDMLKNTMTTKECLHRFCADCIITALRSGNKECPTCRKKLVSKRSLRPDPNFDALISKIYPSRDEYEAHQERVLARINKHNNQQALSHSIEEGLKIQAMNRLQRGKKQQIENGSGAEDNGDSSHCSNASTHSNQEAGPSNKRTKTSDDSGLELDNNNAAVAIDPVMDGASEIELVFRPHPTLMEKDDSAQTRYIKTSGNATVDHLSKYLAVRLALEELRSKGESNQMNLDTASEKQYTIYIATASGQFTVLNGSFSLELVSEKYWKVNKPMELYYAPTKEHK
Briefly: pull-down; 300 ng GST-RING1B with 1 mg total cell extracts of mESCs and His-mYAF2-mCherry at 0, 100, 300 ng in PBS, 4 °C, 4 hrs; glutathione agarose; Western blot for RYBP; only the target purified.

Changes are numbered by the printed parent chain. Results are given in words; binding and its absence hold for the method and conditions named. In cells and extracts the contact can be indirect. Some results given as binding are weak or reduced against the parent protein; the word gives no strength. For part of these data: Tags and fused reporters may be left off the sequences shown.

As for “RING1B (partner of the RYBP and YAF2 constructs in HEK293T cells) (from UniProt Q99496 1-336)”, the binding result was “no binding” in assay [1]; “binds” in assay [2]; “binds” in assay [3]; “binds” with Full-length RYBP (mouse); “binds” in [4]; “no binding” in assay [5].
Regarding “endogenous RING1B (HEK293T cells) (from UniProt Q99496 1-336)”, the binding result in [6] and in [7] was “binds” each time.

B1: His-mYAF2-mCherry (natural protein, mouse, UniProt Q99LW6 1-179, looked up)
chain: T2 sequence
notes: YAF2 (Yaf2), the coding region amplified from mouse cDNA, in pET-28a; also called His-YAF2; pET-28a-mYaf2-mCherry; source: E. coli BL21 (DE3), purified (Ni-NTA); not shown: His6, N-terminal, kept
For the molecule B1, in assay [8], the binding result is reported as “binds”.

B2: YAF2 (partner of the Flag-RING1B constructs in HEK293T cells) (protein, UniProt Q8IY57 1-180)
chain: T7 sequence
For the molecule B2, the binding result is reported as “no binding” in assay [9], “binds” in [10], “binds” in assay [11] and “no binding” in assay [12].

B3: endogenous YAF2 (HEK293T cells) (protein, UniProt Q8IY57 1-180)
chain: T7 sequence
With B3, the binding result in [7] is listed as “no binding”.

B4: RYBP (partner of the Flag-RING1B constructs in HEK293T cells) (protein, UniProt Q8N488 1-228)
chain: T4 sequence with P87Q, D97E
As to B4, the binding result is reported as “no binding” in [9], “binds” in [10], “binds” in assay [11] and “no binding” in assay [12].

B5: endogenous RYBP (mESCs) (protein, UniProt Q8CCI5 1-228)
chain: T4 sequence
Consider B5, for which the binding entry (in the assay with GST-RING1B; in assay [8]) was “binds” in each case.

B6: endogenous RYBP (HEK293T cells) (protein, UniProt Q8N488 1-228)
chain: T4 sequence with P87Q, D97E
For B6, in assay [6], the binding entry is “no binding”.
